Data: the supplement of paper PMC11417369
The list shows a part of the results.

Test system: PfSIP2 AP2 domain 1 (GST-tagged)
Assay: gcPBM binding intensity (ln(normalized median fluorescence intensity)); higher = stronger DNA binding
Outline: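 DNA-binding domains from P. falciparum, fused to GST and produced in E. coli, were put on an Agilent 4 × 180k double-stranded probe array for 1 h in 1× PBS holding 1% milk, 0.2 mg/ml BSA, 0.5% salmon testes DNA and 0.03% Triton X-100. Probes were primer-extended, 36 bp long and drawn from intergenic genomic regions, with negative controls included. After Alexa488 anti-GST antibody detection and a 488 nm scan, binding intensity was set as the highest Masliner-normalised natural-log median intensity across replicate spots of either probe orientation.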

Point of comparison: “TTTTTTTTGTAATACGCATGCTAAAAATATTTATAA [TGCATGCA_site656]”, “gcPBM binding intensity (ln)” value 7.07. Against it:
- TGAGAAAAAAAGAATTGTACATATAAAATATAACAA [XGTACX_site3500] — lower, 6.74
- GAGGATCATCAATTCACACACATAAAAATGAAGTTA [CACACA_site3078] — lower, 6.81
- CAATTTTCTAATGAAACATGCAAAATAAAATTTTAT [TGCATGCA_site13] — lower, 6.78
- TTCTTTTTAATGTCGGTGCAACTCCATAAAAACAAA [GTGCAC_site9488] — higher, 10.8
- CAACGATACAAAAAAGGTACACATATATATATATAT [XGTACX_site8688] — higher, 8.98
- TATATAAAATTCTATTGTACATGTTATACGAAAGAA [XGTACX_site5711] — higher, 7.58
- CAAATACATAGACACACACACATATACATATTTATA [CACACA_site7610] — higher, 7.11
- TTTATATTTAAATGCATGCACTTTCTATTTTTTTTT [GTGCAC_site9959] — higher, 8.4
- TATTTGATAAATTATACACACACAATATATATAAAA [CACACA_site8625] — lower, 6.94
- GAATAAAGGAGAGGCACACATATATATATATATATA [CACACA_site2452] — higher, 9.61
- GACCATGTTAACAAAGCATGCATCTCTATATGTTTA [TGCATGCA_site358] — lower, 6.94
- ACATAAAATAAATATACACACATATGTATATATCAT [CACACA_site7424] — lower, 7
- AAAAAAAAAAGAAAGAGTACTTTTTCAATACATATA [XGTACX_site2468] — higher, 7.12
- TTATTTTATAAATCGAAAACAAACAAAAAAAAGATA [XGTACX_negctrl_site178] — higher, 7.16
- TTGCTGTATTTATTTTGTACACATTTGGCATTATAT [XGTACX_site3408] — higher, 7.17
- AAGAAAAACAATACGTGTACCAAGCATCCTACTAAC [XGTACX_site6628] — lower, 6.88
- TTAATATAATTAAAATGTACTTATTTGTAAACATTA [XGTACX_site6313] — lower, 6.78
- TTTGTAGCACTTAAGAGTACAAAATGTATAAGATTT [XGTACX_site2321] — higher, 7.14
- TATATATATATATATTGTACACATTGTGTTTAAATA [XGTACX_site5104] — higher, 9.15
- AATAGAATGTAATATACACACATATATTTCTCTTTT [CACACA_site2630] — lower, 6.71
- TTTTTATTGTTAATTTTAATTTTTTTTTTTTAATGC [CACACA_negctrl_site162] — lower, 6.69
- TTGTAACCTATGCACGCACACAAGAAAAAAACAAAA [CACACA_site3775] — higher, 7.7
- TTTCCTTATAAAAATACACACAAACTTTAATTAAAA [CACACA_site7710] — lower, 6.91
- TATTCCAAATTTACTAGTACATAATCCATCCGATAA [XGTACX_site1558] — lower, 6.8
- TTTCTTTTTAAATGCTGTACAAAGGGTGACGTTAAA [XGTACX_site4724] — higher, 7.35
- TATTACACATATTATACACACATATATTATAGATAT [CACACA_site6839] — higher, 7.17
- ATTTTTTATATTTAGTGTACATGTTTTAATTTATAA [XGTACX_site7512] — higher, 7.29
- ATAACTTTATTCAGTTTGCACTTTTATAACAAAAGA — higher, 8.39
- CTTATATAATTCGATAGTACATATTTTTATATATAT [XGTACX_site4045] — lower, 7.06
- TTTTCTTTTTTTTTTGTGCACATAATATATAATTAT — higher, 9.91
- ATATTTTTTAGTAAGACGAAATAAATAAATCTTTAT [CACACA_negctrl_site1778] — lower, 6.79
- TATATATATATAAGCACACAAACAAAAAAAATTATA [CACACA_site3897] — higher, 8
- TTTTTCCTATTTTTAGTGCACATATAAATAAATAAA [GTGCAC_site9821] — higher, 10.7
- ATTGAATATGTAAATGCACACCAAAAAAAAAAAAAA [CACACA_site9189] — higher, 7.29
- CGTATTTATAGAATTACACACCATATTGTAATTATT [CACACA_site7722] — lower, 6.95
- GTGTTTTTATTATTTTGTACACATATATTTAATATT [XGTACX_site2109] — higher, 8.26
- ATTTAAATAAGATATACACACAAGTAGAAGACTATG [CACACA_site806] — lower, 7.06
- TTTTCGATGTTGGTAGGAAGTTTGGTACACGTAGTA [TGCATGCA_negctrl_site145] — higher, 7.14
- AAAATTCATATATACACACACGCACATATATATATA [CACACA_site90] — higher, 9.47
- GAATGTCTAATTTTGATGCACACTTTTGTGCAATTA [CACACA_site2902] — higher, 8.6
- TTATATTATTCGTGTGTGCACGATATTTCATAATTG [GTGCAC_site9767] — higher, 8.96
- CAAAAAATTCAACACACACACACACCGATAAATAAA [CACACA_site8330] — lower, 7.01
- TTGTCCCTATAAGGGGAACACACATAAATGAATATA [CACACA_site8250] — lower, 6.77
- AAAACTATTTGTAAAAGTACATAATAAATAAATAAA [XGTACX_site7922] — lower, 6.87
- ATAATGTTTTATAATACACACATTATGTATATAAAT [CACACA_site4077] — lower, 7.04
- CTATTATTTTTAAATTGTACTATAACAAAATGTATA [XGTACX_site3916] — higher, 7.15
- AAATAAATCTATAATACACACAAAAATATAAAATGC [CACACA_site7700] — higher, 7.23
- TTTATATTTATATAAATATAATATATATGAATTATA [XGTACX_negctrl_site466] — lower, 6.99
- ATATATATGTTTTATAGTACACACATAAATGGACAT [XGTACX_site4538] — higher, 7.32
- TTAAGAAATAACAATGCACACATTTAGGTCTTTTAT [CACACA_site3285] — lower, 6.98
- ATAACTTGTATATATACACACACACCCTTTCTTTTT [CACACA_site8600] — higher, 7.08
- TATATTATATTATACATACACACCCATATAATATGT [CACACA_site869] — higher, 7.21
- TTAGATATGTGTAAGGGTACAAAATACTTTACATTT [XGTACX_site8204] — lower, 6.87
- CTTCAATATATTCTTACACACTTAAAAAAAAAAATA [CACACA_site4287] — higher, 7.28
- TAAGTATACGCATACACACACACACCCAAAAAAAAA [CACACA_site425] — lower, 6.96
- CATTCAATTGAAAAATGTACAAAAATAAACATATGC [XGTACX_site1663] — lower, 6.98
